# The other results are listed elsewhere or left out.
# Target: T1, MBP-FoxP1dN (Mus musculus, UniProt P58462 326-579)
# T1 sequence: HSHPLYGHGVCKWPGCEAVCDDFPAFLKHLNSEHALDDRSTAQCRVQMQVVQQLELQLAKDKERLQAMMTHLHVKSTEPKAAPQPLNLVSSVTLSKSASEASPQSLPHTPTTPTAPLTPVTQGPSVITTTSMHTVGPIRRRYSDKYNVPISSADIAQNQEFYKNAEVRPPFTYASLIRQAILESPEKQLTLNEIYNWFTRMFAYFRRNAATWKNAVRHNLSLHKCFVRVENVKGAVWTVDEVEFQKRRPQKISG
# Experiment: PD-seq (MBP pull-down with sequencing); 20 mM Tris-HCl pH 7.5, 100 mM NaCl, 1.5 mM MgCl2, 0.4 uM protein, 0.1 uM dsDNA library, 30 min, room temperature, amylose pull-down; high values mean tight binding
# Conditions: protein: recombinant; tags: His6-MBP; chain copies: 2; dsDNA, one strand shown
# Outline: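 Mouse FoxP3 or FoxP1 fragment lacking the N-terminus, His6-MBP-tagged and expressed in E. coli, was incubated at 0.4 µM with 0.1 µM Klenow-filled degenerate double-stranded DNA library for 30 min at room temperature in Tris pH 7.5 buffer with NaCl and MgCl2. Complexes captured on amylose resin were washed three times and their DNA sequenced on Illumina. Binding is reads-per-million enrichment of pull-down over input, replicates pooled.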
row,Sequence,binding signal
1,GATGATTGTTCTCCCAGCTGATGAATTTGGTCTCTCGAGTAAACAAATTTTCCTAATCTTTCTGTTCAAGCGCCATCTAC,0.959 RPM ratio (pull-down/input)
2,GATGATTGTTCTCCCAGCTGATGAATTGAATATGTCGAGTAAACAAATTTTCCTAATCTTTCTGTTCAAGCGCCATCTAC,0.954 RPM ratio (pull-down/input)
3,GATGATTGTTCTCCCAGCTGATGAATTGAGACGCTCGAGTAAACAAATTTTCCTAATCTTTCTGTTCAAGCGCCATCTAC,0.858 RPM ratio (pull-down/input)
4,GATGATTGTTCTCCCAGCTGATGAATTAATATAGTCGAGTAAACAAATTTTCCTAATCTTTCTGTTCAAGCGCCATCTAC,0.98 RPM ratio (pull-down/input)
5,GATGATTGTTCTCCCAGCTGATGAATTTTGATTCTCGAGTAAACAAATTTTCCTAATCTTTCTGTTCAAGCGCCATCTAC,0.976 RPM ratio (pull-down/input)
6,GATGATTGTTCTCCCAGCTGATGAATTAATCGAATCGAGTAAACAAATTTTCCTAATCTTTCTGTTCAAGCGCCATCTAC,1.01 RPM ratio (pull-down/input)
7,GATGATTGTTCTCCCAGCTGATGAATTCCCCTGATCGAGTAAACAAATTTTCCTAATCTTTCTGTTCAAGCGCCATCTAC,0.784 RPM ratio (pull-down/input)
8,GATGATTGTTCTCCCAGCTGATGAATTAGAGTGCTCGAGTAAACAAATTTTCCTAATCTTTCTGTTCAAGCGCCATCTAC,0.848 RPM ratio (pull-down/input)
9,GATGATTGTTCTCCCAGCTGATGAATTAGCGGTATCGAGTAAACAAATTTTCCTAATCTTTCTGTTCAAGCGCCATCTAC,0.947 RPM ratio (pull-down/input)
10,GATGATTGTTCTCCCAGCTGATGAATTCACAAGTTCGAGTAAACAAATTTTCCTAATCTTTCTGTTCAAGCGCCATCTAC,0.88 RPM ratio (pull-down/input)
11,GATGATTGTTCTCCCAGCTGATGAATTGCTAAAGTCGAGTAAACAAATTTTCCTAATCTTTCTGTTCAAGCGCCATCTAC,1.1 RPM ratio (pull-down/input)
12,GATGATTGTTCTCCCAGCTGATGAATTATCTAAGTCGAGTAAACAAATTTTCCTAATCTTTCTGTTCAAGCGCCATCTAC,0.967 RPM ratio (pull-down/input)
13,GATGATTGTTCTCCCAGCTGATGAATTACGCATTTCGAGTAAACAAATTTTCCTAATCTTTCTGTTCAAGCGCCATCTAC,1.22 RPM ratio (pull-down/input)
14,GATGATTGTTCTCCCAGCTGATGAATTCTAAGTGTCGAGTAAACAAATTTTCCTAATCTTTCTGTTCAAGCGCCATCTAC,0.925 RPM ratio (pull-down/input)
15,GATGATTGTTCTCCCAGCTGATGAATTGGCGACTTCGAGTAAACAAATTTTCCTAATCTTTCTGTTCAAGCGCCATCTAC,0.917 RPM ratio (pull-down/input)
16,GATGATTGTTCTCCCAGCTGATGAATTAGGGTCTTCGAGTAAACAAATTTTCCTAATCTTTCTGTTCAAGCGCCATCTAC,0.839 RPM ratio (pull-down/input)
17,GATGATTGTTCTCCCAGCTGATGAATTGAAATACTCGAGTAAACAAATTTTCCTAATCTTTCTGTTCAAGCGCCATCTAC,0.901 RPM ratio (pull-down/input)
18,GATGATTGTTCTCCCAGCTGATGAATTGCGATCGTCGAGTAAACAAATTTTCCTAATCTTTCTGTTCAAGCGCCATCTAC,1.03 RPM ratio (pull-down/input)
19,GATGATTGTTCTCCCAGCTGATGAATTAGTCGCGTCGAGTAAACAAATTTTCCTAATCTTTCTGTTCAAGCGCCATCTAC,1.01 RPM ratio (pull-down/input)
20,GATGATTGTTCTCCCAGCTGATGAATTGAAGGTGTCGAGTAAACAAATTTTCCTAATCTTTCTGTTCAAGCGCCATCTAC,0.823 RPM ratio (pull-down/input)
21,GATGATTGTTCTCCCAGCTGATGAATTCGCCGTCTCGAGTAAACAAATTTTCCTAATCTTTCTGTTCAAGCGCCATCTAC,0.763 RPM ratio (pull-down/input)

row,Sequence,binding signal
1,GATGATTGTTCTCCCAGCTGATGAATTTATTCACTCGAGTAAACAAATTTTCCTAATCTTTCTGTTCAAGCGCCATCTAC,1.16 RPM ratio (pull-down/input)
2,GATGATTGTTCTCCCAGCTGATGAATTCCAAGAATCGAGTAAACAAATTTTCCTAATCTTTCTGTTCAAGCGCCATCTAC,0.932 RPM ratio (pull-down/input)
3,GATGATTGTTCTCCCAGCTGATGAATTCGAGAGCTCGAGTAAACAAATTTTCCTAATCTTTCTGTTCAAGCGCCATCTAC,0.759 RPM ratio (pull-down/input)
4,GATGATTGTTCTCCCAGCTGATGAATTCTAGGTTTCGAGTAAACAAATTTTCCTAATCTTTCTGTTCAAGCGCCATCTAC,0.884 RPM ratio (pull-down/input)
5,GATGATTGTTCTCCCAGCTGATGAATTGACATTGTCGAGTAAACAAATTTTCCTAATCTTTCTGTTCAAGCGCCATCTAC,1.38 RPM ratio (pull-down/input)
6,GATGATTGTTCTCCCAGCTGATGAATTACCGCAATCGAGTAAACAAATTTTCCTAATCTTTCTGTTCAAGCGCCATCTAC,1.22 RPM ratio (pull-down/input)
7,GATGATTGTTCTCCCAGCTGATGAATTTTTAACTTCGAGTAAACAAATTTTCCTAATCTTTCTGTTCAAGCGCCATCTAC,0.922 RPM ratio (pull-down/input)
8,GATGATTGTTCTCCCAGCTGATGAATTGTTCCTTTCGAGTAAACAAATTTTCCTAATCTTTCTGTTCAAGCGCCATCTAC,1.07 RPM ratio (pull-down/input)
9,GATGATTGTTCTCCCAGCTGATGAATTCTGGATATCGAGTAAACAAATTTTCCTAATCTTTCTGTTCAAGCGCCATCTAC,0.967 RPM ratio (pull-down/input)
10,GATGATTGTTCTCCCAGCTGATGAATTCTTCGGATCGAGTAAACAAATTTTCCTAATCTTTCTGTTCAAGCGCCATCTAC,0.789 RPM ratio (pull-down/input)
11,GATGATTGTTCTCCCAGCTGATGAATTCTATAATTCGAGTAAACAAATTTTCCTAATCTTTCTGTTCAAGCGCCATCTAC,0.944 RPM ratio (pull-down/input)
12,GATGATTGTTCTCCCAGCTGATGAATTAGACCGATCGAGTAAACAAATTTTCCTAATCTTTCTGTTCAAGCGCCATCTAC,0.899 RPM ratio (pull-down/input)
13,GATGATTGTTCTCCCAGCTGATGAATTAGCTTAATCGAGTAAACAAATTTTCCTAATCTTTCTGTTCAAGCGCCATCTAC,0.948 RPM ratio (pull-down/input)
14,GATGATTGTTCTCCCAGCTGATGAATTTGCGTGGTCGAGTAAACAAATTTTCCTAATCTTTCTGTTCAAGCGCCATCTAC,0.97 RPM ratio (pull-down/input)
15,GATGATTGTTCTCCCAGCTGATGAATTGATTCCATCGAGTAAACAAATTTTCCTAATCTTTCTGTTCAAGCGCCATCTAC,1.09 RPM ratio (pull-down/input)
16,GATGATTGTTCTCCCAGCTGATGAATTGCAGGCGTCGAGTAAACAAATTTTCCTAATCTTTCTGTTCAAGCGCCATCTAC,1.06 RPM ratio (pull-down/input)
17,GATGATTGTTCTCCCAGCTGATGAATTCCGCAGGTCGAGTAAACAAATTTTCCTAATCTTTCTGTTCAAGCGCCATCTAC,0.719 RPM ratio (pull-down/input)
18,GATGATTGTTCTCCCAGCTGATGAATTACGTATGTCGAGTAAACAAATTTTCCTAATCTTTCTGTTCAAGCGCCATCTAC,1.1 RPM ratio (pull-down/input)
19,GATGATTGTTCTCCCAGCTGATGAATTCTTGCGCTCGAGTAAACAAATTTTCCTAATCTTTCTGTTCAAGCGCCATCTAC,0.907 RPM ratio (pull-down/input)
20,GATGATTGTTCTCCCAGCTGATGAATTAGCGTACTCGAGTAAACAAATTTTCCTAATCTTTCTGTTCAAGCGCCATCTAC,0.923 RPM ratio (pull-down/input)
21,GATGATTGTTCTCCCAGCTGATGAATTACATATCTCGAGTAAACAAATTTTCCTAATCTTTCTGTTCAAGCGCCATCTAC,1.35 RPM ratio (pull-down/input)

row,Sequence,binding signal
1,GATGATTGTTCTCCCAGCTGATGAATTATTCCAATCGAGTAAACAAATTTTCCTAATCTTTCTGTTCAAGCGCCATCTAC,1.12 RPM ratio (pull-down/input)
2,GATGATTGTTCTCCCAGCTGATGAATTAAATGTCTCGAGTAAACAAATTTTCCTAATCTTTCTGTTCAAGCGCCATCTAC,0.889 RPM ratio (pull-down/input)
3,GATGATTGTTCTCCCAGCTGATGAATTTACGCTTTCGAGTAAACAAATTTTCCTAATCTTTCTGTTCAAGCGCCATCTAC,1.39 RPM ratio (pull-down/input)
4,GATGATTGTTCTCCCAGCTGATGAATTGCGAGCATCGAGTAAACAAATTTTCCTAATCTTTCTGTTCAAGCGCCATCTAC,1.14 RPM ratio (pull-down/input)
5,GATGATTGTTCTCCCAGCTGATGAATTACTTACATCGAGTAAACAAATTTTCCTAATCTTTCTGTTCAAGCGCCATCTAC,1.25 RPM ratio (pull-down/input)
6,GATGATTGTTCTCCCAGCTGATGAATTGGTCCTCTCGAGTAAACAAATTTTCCTAATCTTTCTGTTCAAGCGCCATCTAC,0.834 RPM ratio (pull-down/input)
7,GATGATTGTTCTCCCAGCTGATGAATTAGCTAGATCGAGTAAACAAATTTTCCTAATCTTTCTGTTCAAGCGCCATCTAC,0.965 RPM ratio (pull-down/input)
8,GATGATTGTTCTCCCAGCTGATGAATTGATTAGTTCGAGTAAACAAATTTTCCTAATCTTTCTGTTCAAGCGCCATCTAC,1.15 RPM ratio (pull-down/input)
9,GATGATTGTTCTCCCAGCTGATGAATTAATTGCGTCGAGTAAACAAATTTTCCTAATCTTTCTGTTCAAGCGCCATCTAC,1.22 RPM ratio (pull-down/input)
10,GATGATTGTTCTCCCAGCTGATGAATTCCTCAGCTCGAGTAAACAAATTTTCCTAATCTTTCTGTTCAAGCGCCATCTAC,0.727 RPM ratio (pull-down/input)
11,GATGATTGTTCTCCCAGCTGATGAATTTACTCTCTCGAGTAAACAAATTTTCCTAATCTTTCTGTTCAAGCGCCATCTAC,1.17 RPM ratio (pull-down/input)
12,GATGATTGTTCTCCCAGCTGATGAATTTTTCCCTTCGAGTAAACAAATTTTCCTAATCTTTCTGTTCAAGCGCCATCTAC,0.907 RPM ratio (pull-down/input)
13,GATGATTGTTCTCCCAGCTGATGAATTCGCCTCTTCGAGTAAACAAATTTTCCTAATCTTTCTGTTCAAGCGCCATCTAC,0.972 RPM ratio (pull-down/input)
14,GATGATTGTTCTCCCAGCTGATGAATTCCTTGTCTCGAGTAAACAAATTTTCCTAATCTTTCTGTTCAAGCGCCATCTAC,0.853 RPM ratio (pull-down/input)
15,GATGATTGTTCTCCCAGCTGATGAATTTCAGGATTCGAGTAAACAAATTTTCCTAATCTTTCTGTTCAAGCGCCATCTAC,0.81 RPM ratio (pull-down/input)
16,GATGATTGTTCTCCCAGCTGATGAATTACGTAAATCGAGTAAACAAATTTTCCTAATCTTTCTGTTCAAGCGCCATCTAC,1.34 RPM ratio (pull-down/input)
17,GATGATTGTTCTCCCAGCTGATGAATTCCGCGCGTCGAGTAAACAAATTTTCCTAATCTTTCTGTTCAAGCGCCATCTAC,0.967 RPM ratio (pull-down/input)
18,GATGATTGTTCTCCCAGCTGATGAATTGTCGCCGTCGAGTAAACAAATTTTCCTAATCTTTCTGTTCAAGCGCCATCTAC,0.958 RPM ratio (pull-down/input)
19,GATGATTGTTCTCCCAGCTGATGAATTTTCTCTGTCGAGTAAACAAATTTTCCTAATCTTTCTGTTCAAGCGCCATCTAC,0.831 RPM ratio (pull-down/input)
20,GATGATTGTTCTCCCAGCTGATGAATTGCACGTGTCGAGTAAACAAATTTTCCTAATCTTTCTGTTCAAGCGCCATCTAC,1.21 RPM ratio (pull-down/input)
21,GATGATTGTTCTCCCAGCTGATGAATTCTGGTTATCGAGTAAACAAATTTTCCTAATCTTTCTGTTCAAGCGCCATCTAC,0.931 RPM ratio (pull-down/input)
